This is an account of results in paper PMC3973283.

The chains behind the UniProt entries cited, without tags or fusion partners. Where a name states a change or a piece, a line headed by the entry shows the natural chain unless it says otherwise.
UniProt Q96KQ7: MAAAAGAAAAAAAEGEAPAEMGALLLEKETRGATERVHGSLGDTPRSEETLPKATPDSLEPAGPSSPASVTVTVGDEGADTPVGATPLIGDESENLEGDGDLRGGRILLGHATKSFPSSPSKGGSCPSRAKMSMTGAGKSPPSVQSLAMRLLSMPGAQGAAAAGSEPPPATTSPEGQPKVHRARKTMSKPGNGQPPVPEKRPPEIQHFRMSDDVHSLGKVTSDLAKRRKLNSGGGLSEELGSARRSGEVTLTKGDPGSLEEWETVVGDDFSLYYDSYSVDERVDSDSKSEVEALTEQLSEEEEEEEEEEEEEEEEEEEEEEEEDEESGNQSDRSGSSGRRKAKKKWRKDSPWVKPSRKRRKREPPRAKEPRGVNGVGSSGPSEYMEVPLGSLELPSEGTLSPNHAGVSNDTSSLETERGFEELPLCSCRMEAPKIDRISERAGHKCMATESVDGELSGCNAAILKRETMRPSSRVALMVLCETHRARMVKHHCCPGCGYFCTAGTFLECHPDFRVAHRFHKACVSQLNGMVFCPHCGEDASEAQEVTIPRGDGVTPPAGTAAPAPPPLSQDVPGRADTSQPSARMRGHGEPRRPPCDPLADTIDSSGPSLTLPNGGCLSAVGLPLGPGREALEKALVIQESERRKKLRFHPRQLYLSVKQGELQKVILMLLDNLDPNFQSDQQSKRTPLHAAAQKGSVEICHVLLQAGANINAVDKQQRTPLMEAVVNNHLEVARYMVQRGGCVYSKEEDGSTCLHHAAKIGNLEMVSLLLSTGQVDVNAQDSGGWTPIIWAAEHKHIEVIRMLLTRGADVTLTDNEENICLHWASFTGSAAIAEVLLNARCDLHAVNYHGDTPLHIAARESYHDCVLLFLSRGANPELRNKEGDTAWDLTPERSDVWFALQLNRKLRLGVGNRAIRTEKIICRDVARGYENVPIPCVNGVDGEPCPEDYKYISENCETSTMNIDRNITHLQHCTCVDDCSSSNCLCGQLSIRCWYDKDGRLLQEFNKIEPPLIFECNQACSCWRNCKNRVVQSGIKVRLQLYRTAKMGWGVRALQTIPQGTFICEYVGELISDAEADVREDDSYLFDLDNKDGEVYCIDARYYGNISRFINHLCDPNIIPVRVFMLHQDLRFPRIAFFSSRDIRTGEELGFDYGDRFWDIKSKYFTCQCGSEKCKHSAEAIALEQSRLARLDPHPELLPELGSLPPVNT

One assay deals with T1, FLAG-Riz1C (UniProt Q13029).
T1 sequence: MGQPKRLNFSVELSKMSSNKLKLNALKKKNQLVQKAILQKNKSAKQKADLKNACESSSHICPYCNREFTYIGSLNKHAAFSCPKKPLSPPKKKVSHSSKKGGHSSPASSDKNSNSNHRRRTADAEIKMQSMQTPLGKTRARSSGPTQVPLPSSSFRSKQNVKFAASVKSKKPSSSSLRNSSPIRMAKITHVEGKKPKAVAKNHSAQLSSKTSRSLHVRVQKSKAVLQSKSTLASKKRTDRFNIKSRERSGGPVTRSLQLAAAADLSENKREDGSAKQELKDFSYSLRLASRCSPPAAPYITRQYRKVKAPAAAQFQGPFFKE
Briefly: co-IP; HeLa cells co-transfected with FLAG-Riz1C or FLAG-Riz1ΔC and DBD-PR-Set7 or DBD-G9aC; FLAG-immunoprecipitation; Western analysis (Figure 2D).

Assay [1] deals with HA-p53 (UniProt P04637). Kind of assay: co-IP; HeLa cells co-transfected; nuclear pellet in IP lysis buffer (50 mM Tris-HCl pH 7.0, 150 mM NaCl, 0.5 mM DTT, 1% NP-40); FLAG- or HA-conjugated beads; Western analysis (Figure 1B).
Assay [2] concerns the target T2, HA-PR-Set7 (UniProt Q9NQR1).
T2 sequence: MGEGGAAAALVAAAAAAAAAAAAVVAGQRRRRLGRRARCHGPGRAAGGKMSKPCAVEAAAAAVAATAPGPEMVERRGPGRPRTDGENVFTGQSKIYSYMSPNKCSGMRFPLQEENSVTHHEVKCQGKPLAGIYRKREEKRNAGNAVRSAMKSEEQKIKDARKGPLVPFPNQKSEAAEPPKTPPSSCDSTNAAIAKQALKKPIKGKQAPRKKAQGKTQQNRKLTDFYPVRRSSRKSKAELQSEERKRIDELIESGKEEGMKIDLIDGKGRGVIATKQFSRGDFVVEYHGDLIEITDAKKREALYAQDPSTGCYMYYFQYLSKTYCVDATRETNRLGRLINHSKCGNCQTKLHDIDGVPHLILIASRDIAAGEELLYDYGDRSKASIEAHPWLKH
Described as above.

Another assay has as its target T3, FLAG-PR-Set7 (UniProt Q9NQR1).
T3 sequence: T2 sequence
Briefly: co-IP; HeLa or HCT116 cells transfected with FLAG-PR-Set7 or FLAG-GFP; FLAG-immunoprecipitation; Western analysis of endogenous Riz1 (Figure 6B).

Another assay concerns the target T4, His-S-PR-Set7 (UniProt Q9NQR1).
T4 sequence: T2 sequence
Briefly: pull-down; S-tag-immunoprecipitation of recombinant His-S-PR-Set7 incubated in vitro with in vitro translated 35S-Riz1 or 35S-G9a; autoradiography (Figure 1D); only the target purified.

Assay [3] concerns the target HA-p53 (UniProt P04637). Kind of assay: co-IP; HA-immunoprecipitation of HeLa nuclear extracts expressing HA-PR-Set7 or HA-p53 incubated with in vitro translated 35S-Riz1; SDS-PAGE, autoradiography (Figure 1C).
Assay [4] deals with T2, HA-PR-Set7. The assay is described as above.

These are yes or no findings as the source states them, for the method shown. In cells and extracts the contact can be indirect. Some entries that bind do so weakly or less than the wild type. For some assays here: Tags and fused reporters may be left off the sequences shown.

For the substance “DBD-G9aC (SET domain) (from UniProt Q96KQ7 1038-1155) (domain or fragment)”, in the assay with FLAG-Riz1C, the binding result is “no binding”.

As to “ectopic full-length Riz1 (from UniProt Q13029-1 1-1718)”, the figures for the binding result in the assay with HA-p53 [1] and with HA-PR-Set7 [2] were “no binding” and “binds”, respectively.

On to “endogenous wild-type Riz1 (from UniProt Q13029-1 1-1718)”, for which, in the assay with FLAG-PR-Set7, the binding result is “binds”.

“in vitro translated 35S-G9a (from UniProt Q96KQ7 1-1210)”: the binding result with His-S-PR-Set7 was “no binding”.

As to “in vitro translated 35S-Riz1 (from UniProt Q13029-1 1-1718)”, the binding entry is listed as “binds” with His-S-PR-Set7, “no binding” with HA-p53 [3] and “binds” with HA-PR-Set7 [4].
